# From article PMC1609128
# Results are given in words; binding and its absence hold for the method and conditions named. For some assays here: Binding seen in cells or lysates may run through a third protein. Some entries that bind do so weakly or less than the wild type. For some assays here: Sequences can lack the tags named with a protein.
# T1: CTCFL (CTCF like/brother of the regulator of imprinted sites), yeast two-hybrid bait (mouse) (UniProt A2APF3)
# T1 sequence: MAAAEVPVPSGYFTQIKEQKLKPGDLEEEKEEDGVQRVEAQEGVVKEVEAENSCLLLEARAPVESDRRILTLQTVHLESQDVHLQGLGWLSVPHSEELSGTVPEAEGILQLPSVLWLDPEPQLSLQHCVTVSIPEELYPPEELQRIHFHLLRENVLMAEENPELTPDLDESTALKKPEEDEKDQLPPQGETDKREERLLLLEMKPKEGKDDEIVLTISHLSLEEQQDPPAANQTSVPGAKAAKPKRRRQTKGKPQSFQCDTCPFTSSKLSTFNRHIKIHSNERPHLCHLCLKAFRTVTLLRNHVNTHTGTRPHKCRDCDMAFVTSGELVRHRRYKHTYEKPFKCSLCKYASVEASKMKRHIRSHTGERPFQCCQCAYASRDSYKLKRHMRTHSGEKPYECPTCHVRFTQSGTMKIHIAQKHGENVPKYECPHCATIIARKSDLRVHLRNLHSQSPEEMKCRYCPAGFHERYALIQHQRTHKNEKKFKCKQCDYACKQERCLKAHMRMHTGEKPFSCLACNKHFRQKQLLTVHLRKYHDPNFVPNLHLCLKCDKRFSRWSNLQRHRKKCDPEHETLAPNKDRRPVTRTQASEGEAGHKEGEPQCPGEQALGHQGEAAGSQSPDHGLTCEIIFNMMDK
# T2: CMV-GST PRMT7 (full length) (mouse) (UniProt Q922X9)
# T2 sequence: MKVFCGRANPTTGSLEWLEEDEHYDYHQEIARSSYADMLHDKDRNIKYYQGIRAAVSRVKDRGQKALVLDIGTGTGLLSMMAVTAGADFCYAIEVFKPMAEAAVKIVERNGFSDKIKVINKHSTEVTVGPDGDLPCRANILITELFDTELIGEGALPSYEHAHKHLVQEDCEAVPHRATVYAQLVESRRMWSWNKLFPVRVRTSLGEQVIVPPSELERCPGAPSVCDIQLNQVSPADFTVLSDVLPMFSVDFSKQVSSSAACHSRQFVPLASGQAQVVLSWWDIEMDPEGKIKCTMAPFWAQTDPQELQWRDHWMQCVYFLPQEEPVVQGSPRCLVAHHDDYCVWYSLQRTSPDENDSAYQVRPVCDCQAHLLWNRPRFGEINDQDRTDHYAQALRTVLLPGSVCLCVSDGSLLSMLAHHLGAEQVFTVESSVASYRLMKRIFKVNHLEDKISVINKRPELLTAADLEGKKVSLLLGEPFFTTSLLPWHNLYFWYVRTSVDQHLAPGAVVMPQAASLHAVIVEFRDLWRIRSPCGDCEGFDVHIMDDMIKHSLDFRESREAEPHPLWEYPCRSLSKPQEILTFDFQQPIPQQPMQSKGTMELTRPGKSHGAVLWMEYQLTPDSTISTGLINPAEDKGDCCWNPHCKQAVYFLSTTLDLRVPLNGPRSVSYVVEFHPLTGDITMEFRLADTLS
# T3: CMV-GST N-terminal CTCFL (1-229 aa) (mouse) (UniProt A2APF3)
# T3 sequence: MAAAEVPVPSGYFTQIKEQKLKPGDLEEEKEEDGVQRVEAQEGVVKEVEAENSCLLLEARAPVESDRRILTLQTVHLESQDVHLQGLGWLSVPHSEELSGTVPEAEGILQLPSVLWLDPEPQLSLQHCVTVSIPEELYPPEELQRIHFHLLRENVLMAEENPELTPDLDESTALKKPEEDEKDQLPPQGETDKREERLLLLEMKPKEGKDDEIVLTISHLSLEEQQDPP
# T4: V5-tagged PRMT7 (mouse) (UniProt Q922X9)
# T4 sequence: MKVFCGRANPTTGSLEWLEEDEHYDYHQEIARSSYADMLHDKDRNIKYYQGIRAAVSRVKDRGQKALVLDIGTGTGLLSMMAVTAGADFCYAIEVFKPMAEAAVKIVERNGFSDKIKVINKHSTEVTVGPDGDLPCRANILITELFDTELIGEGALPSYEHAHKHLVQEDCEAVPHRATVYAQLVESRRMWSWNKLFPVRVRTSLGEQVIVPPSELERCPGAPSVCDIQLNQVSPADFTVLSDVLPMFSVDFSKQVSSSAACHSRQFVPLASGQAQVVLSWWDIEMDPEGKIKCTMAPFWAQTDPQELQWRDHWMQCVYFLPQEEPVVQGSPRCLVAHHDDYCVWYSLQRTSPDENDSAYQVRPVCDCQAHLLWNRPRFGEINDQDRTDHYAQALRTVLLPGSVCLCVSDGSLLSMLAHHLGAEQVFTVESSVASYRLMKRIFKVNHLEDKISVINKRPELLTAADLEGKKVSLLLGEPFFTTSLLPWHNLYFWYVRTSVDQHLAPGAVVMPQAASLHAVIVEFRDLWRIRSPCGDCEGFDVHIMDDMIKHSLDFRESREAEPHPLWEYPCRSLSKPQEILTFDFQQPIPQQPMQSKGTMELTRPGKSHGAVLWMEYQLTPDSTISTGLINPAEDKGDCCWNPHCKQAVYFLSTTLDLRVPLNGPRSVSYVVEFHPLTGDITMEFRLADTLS
# Columns and labels:
# [1] = biological target: T1, CTCFL (CTCF like/brother of the regulator of imprinted sites), yeast two-hybrid bait (mouse); assay: two-hybrid; Matchmaker GAL4 Two-Hybrid System 3; CTCFL bait against a mouse testis cDNA prey library; four drop-out selection media, β-galactosidase screen; prey candidates re-transformed into bait strains
# [2] = biological target: T2, CMV-GST PRMT7 (full length) (mouse); assay: pull-down; in situ GST interaction assay: CMV-GST fusion (bait) and myc- or V5-tagged prey co-transfected in 293T cells; glutathione beads, overnight at 4 °C; beads washed 4 times in lysis buffer; Western blot
# [3] = biological target: T3, CMV-GST N-terminal CTCFL (1-229 aa) (mouse); assay: as above
# V5-tagged PRMT7 (mouse) = biological target: T4, V5-tagged PRMT7 (mouse); assay: co-IP; 293T extracts with over-expressed CTCFL-Myc and PRMT7-V5; immunoprecipitated with α-V5 antibody or normal mouse serum; CTCFL detected with α-Myc
binder,measurement,setting,value
"PRMT7 prey clone (carboxy-terminal 87 amino acids of the 692-aa protein) (domain or fragment, UniProt Q922X9 606-692) GKSHGAVLWMEYQLTPDSTISTGLINPAEDKGDCCWNPHCKQAVYFLSTTLDLRVPLNGPRSVSYVVEFHPLTGDITMEFRLADTLS",binding,[1],binds
"V5-tagged N-terminal CTCFL (domain or fragment, UniProt A2APF3 1-229) MAAAEVPVPSGYFTQIKEQKLKPGDLEEEKEEDGVQRVEAQEGVVKEVEAENSCLLLEARAPVESDRRILTLQTVHLESQDVHLQGLGWLSVPHSEELSGTVPEAEGILQLPSVLWLDPEPQLSLQHCVTVSIPEELYPPEELQRIHFHLLRENVLMAEENPELTPDLDESTALKKPEEDEKDQLPPQGETDKREERLLLLEMKPKEGKDDEIVLTISHLSLEEQQDPP",binding,[2],binds
"V5-tagged PRMT7 (enzyme, UniProt Q922X9 1-692) MKVFCGRANPTTGSLEWLEEDEHYDYHQEIARSSYADMLHDKDRNIKYYQGIRAAVSRVKDRGQKALVLDIGTGTGLLSMMAVTAGADFCYAIEVFKPMAEAAVKIVERNGFSDKIKVINKHSTEVTVGPDGDLPCRANILITELFDTELIGEGALPSYEHAHKHLVQEDCEAVPHRATVYAQLVESRRMWSWNKLFPVRVRTSLGEQVIVPPSELERCPGAPSVCDIQLNQVSPADFTVLSDVLPMFSVDFSKQVSSSAACHSRQFVPLASGQAQVVLSWWDIEMDPEGKIKCTMAPFWAQTDPQELQWRDHWMQCVYFLPQEEPVVQGSPRCLVAHHDDYCVWYSLQRTSPDENDSAYQVRPVCDCQAHLLWNRPRFGEINDQDRTDHYAQALRTVLLPGSVCLCVSDGSLLSMLAHHLGAEQVFTVESSVASYRLMKRIFKVNHLEDKISVINKRPELLTAADLEGKKVSLLLGEPFFTTSLLPWHNLYFWYVRTSVDQHLAPGAVVMPQAASLHAVIVEFRDLWRIRSPCGDCEGFDVHIMDDMIKHSLDFRESREAEPHPLWEYPCRSLSKPQEILTFDFQQPIPQQPMQSKGTMELTRPGKSHGAVLWMEYQLTPDSTISTGLINPAEDKGDCCWNPHCKQAVYFLSTTLDLRVPLNGPRSVSYVVEFHPLTGDITMEFRLADTLS",binding,[3],binds
"Myc-tagged CTCFL (full length) (protein, UniProt A2APF3 1-636) MAAAEVPVPSGYFTQIKEQKLKPGDLEEEKEEDGVQRVEAQEGVVKEVEAENSCLLLEARAPVESDRRILTLQTVHLESQDVHLQGLGWLSVPHSEELSGTVPEAEGILQLPSVLWLDPEPQLSLQHCVTVSIPEELYPPEELQRIHFHLLRENVLMAEENPELTPDLDESTALKKPEEDEKDQLPPQGETDKREERLLLLEMKPKEGKDDEIVLTISHLSLEEQQDPPAANQTSVPGAKAAKPKRRRQTKGKPQSFQCDTCPFTSSKLSTFNRHIKIHSNERPHLCHLCLKAFRTVTLLRNHVNTHTGTRPHKCRDCDMAFVTSGELVRHRRYKHTYEKPFKCSLCKYASVEASKMKRHIRSHTGERPFQCCQCAYASRDSYKLKRHMRTHSGEKPYECPTCHVRFTQSGTMKIHIAQKHGENVPKYECPHCATIIARKSDLRVHLRNLHSQSPEEMKCRYCPAGFHERYALIQHQRTHKNEKKFKCKQCDYACKQERCLKAHMRMHTGEKPFSCLACNKHFRQKQLLTVHLRKYHDPNFVPNLHLCLKCDKRFSRWSNLQRHRKKCDPEHETLAPNKDRRPVTRTQASEGEAGHKEGEPQCPGEQALGHQGEAAGSQSPDHGLTCEIIFNMMDK",binding,V5-tagged PRMT7 (mouse),binds
"V5-tagged CTCF (protein, UniProt Q61164 1-736) MEGEAVEAIVEESETFIKGKERKTYQRRREGGQEEDACHLPQNQTDGGEVVQDVNSSVQMVMMEQLDPTLLQMKTEVMEGTVAPEAEAAVDDTQIITLQVVNMEEQPINIGELQLVQVPVPVTVPVATTSVEELQGAYENEVSKEGLAESEPMICHTLPLPEGFQVVKVGANGEVETLEQGELPPQEDSSWQKDPDYQPPAKKTKKTKKSKLRYTEEGKDVDVSVYDFEEEQQEGLLSEVNAEKVVGNMKPPKPTKIKKKGVKKTFQCELCSYTCPRRSNLDRHMKSHTDERPHKCHLCGRAFRTVTLLRNHLNTHTGTRPHKCPDCDMAFVTSGELVRHRRYKHTHEKPFKCSMCDYASVEVSKLKRHIRSHTGERPFQCSLCSYASRDTYKLKRHMRTHSGEKPYECYICHARFTQSGTMKMHILQKHTENVAKFHCPHCDTVIARKSDLGVHLRKQHSYIEQGKKCRYCDAVFHERYALIQHQKSHKNEKRFKCDQCDYACRQERHMIMHKRTHTGEKPYACSHCDKTFRQKQLLDMHFKRYHDPNFVPAAFVCSKCGKTFTRRNTMARHADNCAGPDGVEGENGGETKKSKRGRKRKMRSKKEDSSDSEENAEPDLDDNEEEEEPAVEIEPEPEPQPQPPPPPQPVAPAPPPAKKRRGRPPGRTNQPKQNQPTAIIQVEDQNTGAIENIIVEVKKEPDAEPAEGEEEEAQAATTDAPNGDLTPEMILSMMDR",binding,[2],no binding
